pIC50: −log10 of the molar value. By IC50 is meant the dose at which the fit gives 50% viability; fits outside the tested doses are given as limits. AUC, from the same fit, is the share of area under the viability curve across the 256-fold dose range: 1 means no effect, lower means more sensitive. For some of these results: A top dose marked as inferred is not printed in the source and was worked back from the curve model. For some of these results: Where an entry number is given, a second screen of the drug exists; the two often differ.
Columns and labels:
Test in all cases: Viability of human cancer cell lines after 72 h of drug (GDSC screen)
SNX-2112 = compound: CC1(C)CC(=O)c2c(C(F)(F)F)nn(-c3ccc(C(N)=O)c(N[C@H]4CC[C@H](O)CC4)c3)c2C1 [SNX-2112]; settings: top dose 2.56 µM
Method: (§1)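 Human cancer cell lines in 384-well plates, medium with 10% serum, drug for 72 h over a 256-fold dose range (nine 2-fold or five 4-fold steps up to the top dose). Adherent lines were fixed and stained with the nucleic acid dye Syto60, suspension lines read with resazurin; signal relative to control wells, capped at 0 and 100%. One two-parameter sigmoid per drug and line, fitted in a mixed model over all curves with the slope shared within a line.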

PF-562271 = compound: CN(c1ncccc1CNc1nc(Nc2ccc3c(c2)CC(=O)N3)ncc1C(F)(F)F)S(C)(=O)=O [PF-562271]; settings: top dose 2.56 µM; top dose inferred
Method: as §1

Afatinib = compound: CN(C)C/C=C/C(=O)Nc1cc2c(Nc3ccc(F)c(Cl)c3)ncnc2cc1O[C@H]1CCOC1 [Afatinib]
Method: as §1

XMD13-2 = compound: O=C(NC1CC1)c1cccc(-c2ccc3c(NC(=O)C4CC4)n[nH]c3c2)c1 [XMD13-2]; settings: top dose 10.24 µM; top dose inferred
Method: as §1

Vinblastine = compound: CC[C@]1(O)C[C@@H]2CN(CCc3c([nH]c4ccccc34)[C@@](C(=O)OC)(c3cc4c(cc3OC)N(C)[C@H]3[C@@](O)(C(=O)OC)[C@H](OC(C)=O)[C@]5(CC)C=CCN6CC[C@]43[C@@H]65)C2)C1 [Vinblastine]; settings: top dose 0.1 µM; top dose inferred
Method: as §1

[1] = top dose 0.5 µM, screen: GDSC drug entry 1032
[2] = top dose 10 µM, screen: GDSC drug entry 1377, top dose inferred

Cell Line | AUC (SNX-2112) | pIC50 (SNX-2112) | AUC (PF-562271) | pIC50 (PF-562271) | AUC (Afatinib; [1]) | pIC50 (Afatinib; [1]) | AUC (Afatinib; [2]) | pIC50 (Afatinib; [2]) | AUC (XMD13-2) | pIC50 (XMD13-2) | AUC (Vinblastine) | pIC50 (Vinblastine)
D-502MG (glioma, adherent) | 0.91 | < 5.59 | 0.976 | < 5.59 | 0.942 | < 6.30 | 0.833 | < 5.00 | 0.879 | < 4.99 | 0.674 | 7.60
ESS-1 (endometrium, adherent) | 0.984 | < 5.59 | 0.931 | < 5.59 | 0.99 | < 6.30 | 0.989 | < 5.00 | 0.938 | < 4.99 | 0.407 | 8.45
HDQ-P1 (breast, adherent) | 0.869 | < 5.59 | 0.935 | < 5.59 | 0.801 | 6.52 | 0.914 | < 5.00 | 0.959 | < 4.99 | 0.798 | 7.23
CP66-MEL (melanoma, adherent) | 0.947 | < 5.59 | 0.957 | < 5.59 | 0.986 | < 6.30 | 0.969 | < 5.00 | 0.976 | < 4.99 | 0.826 | 7.14
ETK-1 (biliary tract, adherent) | 0.364 | 7.19 | 0.85 | 5.63 | 0.858 | 6.30 | 0.792 | 5.28 | 0.883 | < 4.99 | 0.504 | 8.19
G-401 (kidney, adherent) | 0.507 | 6.78 | 0.858 | 5.61 | 0.879 | < 6.30 | 0.923 | < 5.00 | 0.956 | < 4.99 | 0.54 | 8.09
HT-115 (large intestine, adherent) | 0.981 | < 5.59 | 0.957 | < 5.59 | 0.897 | < 6.30 | 0.916 | < 5.00 | 0.983 | < 4.99 | 0.93 | < 7.00
NCI-H1694 (small cell lung carcinoma, suspension) | 0.619 | 6.47 | 0.977 | < 5.59 | 0.988 | < 6.30 | 0.973 | < 5.00 | 0.929 | < 4.99 | 0.777 | 7.40
CAL-62 (thyroid, adherent) | 0.986 | < 5.59 | 0.835 | 5.81 | 0.988 | < 6.30 | 0.974 | < 5.00 | 0.978 | < 4.99 | 0.43 | 8.39
MZ1-PC (pancreas, adherent) | 0.412 | 7.06 | 0.792 | 5.83 | 0.979 | < 6.30 | 0.871 | < 5.00 | 0.884 | < 4.99 | 0.671 | 7.68
EBC-1 (lung squamous cell carcinoma, adherent) | 0.832 | 5.71 | 0.92 | < 5.59 | 0.983 | < 6.30 | 0.897 | < 5.00 | 0.846 | 5.05 | 0.577 | 7.98
LAMA-84 (chronic myeloid leukaemia, suspension) | 0.327 | 7.28 | 0.977 | < 5.59 | 0.954 | < 6.30 | 0.971 | < 5.00 | 0.859 | 5.06 | 0.642 | 7.81
AGS (stomach, adherent) | 0.419 | 7.01 | 0.821 | 5.89 | 0.974 | < 6.30 |  |  | 0.973 | < 4.99 | 0.631 | 7.86
HuCCT1 (biliary tract, adherent) | 0.599 | 6.51 | 0.899 | < 5.59 | 0.966 | < 6.30 | 0.866 | < 5.00 | 0.903 | < 4.99 | 0.641 | 7.79
Daudi (Burkitt lymphoma, suspension) | 0.258 | 7.44 | 0.968 | < 5.59 | 0.99 | < 6.30 | 0.986 | < 5.00 | 0.7 | 5.67 | 0.962 | < 7.00
H2731 (mesothelioma, adherent) | 0.893 | < 5.59 | 0.948 | < 5.59 | 0.983 | < 6.30 | 0.982 | < 5.00 | 0.972 | < 4.99 | 0.681 | 7.67
MOLT-4 (lymphoblastic leukaemia, suspension) | 0.252 | 7.43 | 0.92 | < 5.59 | 0.985 | < 6.30 | 0.96 | < 5.00 | 0.886 | 5.12 | 0.452 | 8.32
DG-75 (Burkitt lymphoma, suspension) | 0.922 | < 5.59 | 0.987 | < 5.59 | 0.97 | < 6.30 | 0.925 | < 5.00 | 0.934 | < 4.99 | 0.464 | 8.30
PCI-30 (head and neck, adherent) | 0.844 | 5.60 | 0.983 | < 5.59 | 0.973 | < 6.30 | 0.959 | < 5.00 | 0.969 | < 4.99 | 0.621 | 7.84
SHP-77 (small cell lung carcinoma, semi-adherent) | 0.541 | 6.69 | 0.987 | < 5.59 | 0.988 | < 6.30 | 0.991 | < 5.00 | 0.89 | 5.02 | 0.895 | 7.00
HCC2157 (breast, suspension) | 0.987 | < 5.59 | 0.899 | < 5.59 | 0.719 | 6.87 | 0.895 | < 5.00 | 0.917 | < 4.99 | 0.742 | 7.49

— the supplement of paper PMC4967469
